The other results are listed elsewhere or left out.
Key:
HSkMC = human skeletal muscle cells; experiment: cytotoxicity call (relative viability < 0.9); conditions: 10 µM
HepG2 = experiment: cytotoxicity call (relative viability < 0.9); conditions: 10 µM
S. aureus RN4220 = experiment: growth inhibition call (relative growth <= 0.2); conditions: 50 µM

| Compound | cytotoxicity call (HSkMC) | cytotoxicity call (HepG2) | growth inhibition call (S. aureus RN4220) |
| --- | --- | --- | --- |
| O=C(CCCN1CC=C(n2c(=O)[nH]c3ccccc32)CC1)c1ccc(F)cc1 | inactive | inactive | inactive |
| C[C@@H]1CN([C@@H](C)CO)C(=O)c2cccc(NC(=O)Nc3ccc(C(F)(F)F)cc3)c2O[C@@H]1CN(C)Cc1ccc(Cl)c(Cl)c1 | active | active | inactive |
| CC(=O)NCCCC[C@@H]1NC(=O)[C@H]2C[C@@H](C(=O)NCCCCCN)[C@@H](c3cccc(OCCO)c3)N2C1=O | inactive | inactive | inactive |
| CN1C(=O)c2cc(NC(=O)c3ccc(F)c(F)c3)ccc2OC[C@H]2O[C@@H](CC(=O)N3CCOCC3)CC[C@H]21 | inactive | inactive | inactive |
| C=CCC[C@@H](Cc1ccc(F)cc1)C(=O)O[C@H](CNC(=O)[C@@H](CC=C)CC(=O)N[C@H](CO)Cc1ccccc1)c1ccccc1 | inactive | inactive | inactive |
| COc1ccc(C#Cc2ccc3c(c2)O[C@H](CN(C)C(=O)c2ccccn2)[C@H](C)CN([C@H](C)CO)S3(=O)=O)cc1 | inactive | inactive | inactive |
| C[C@@H]1CN([C@@H](C)CO)C(=O)c2cc(NC(=O)NC3CCCCC3)ccc2O[C@@H](C)CCCCO[C@H]1CN(C)CC1CCCCC1 | inactive | active | inactive |
